Measured values reported in publication PMC12136788.
Some of the results follow.

B1: chr13:21172813:21172814:+_ENSG00000032742_ENST00000351808|hu_hu|FALSE|FALSE (ssRNA)
RNA: GGGAGUUCUACAGUCCGACGAUCGAUAUUUCCCAUAUUCAUUUUCAAUAUUCCUGCAUUGCUAAACAUCUUAUUUUUGACUAUAACUUGAUAAGUGUUAAGUGCUUCGGCAUACAUUUCAUUAACUGAAUACUGACUGGCCAACAACAGAGGAUUGAGCAUCA
B2: chr10:33211235:33211236:-_ENSG00000150093_ENST00000302278|hu_mus|motif|central (ssRNA)
RNA: GGGAGUUCUACAGUCCGACGAUCCAGAAUGACUUCUGAAGAAAGAGAGUUGUAGGCAUCGAUGAUUAGCUGGAUCACAUUACGGGAGUUUCCAGACAGUGUGCCCACUGCUGACUUAGGAAUCAAAUUCUUCAAUUCCUUGUACAACAGAGGAUUGAGCAUCA
B3: chr6:85879240:85879241:+_ENSMUSG00000054226_ENSMUST00000067137|mus_mus|motif|central (ssRNA)
RNA: GGGAGUUCUACAGUCCGACGAUCUACUGCUAUACUCUUUUAGCUGCCUCUUGUAUAAAGUGGGCACAAAGACAUAUCGGCCGGAAAAGCAGCUAAGAGAGUUAAAUGAAUUGCUAUUUAUUGAGAUAGGAUUUGACAUAGUACCAACAGAGGAUUGAGCAUCA
B4: chr18:40848303:40848304:-_ENSG00000132872_ENST00000255224|hu_hu|FALSE|FALSE (ssRNA)
RNA: GGGAGUUCUACAGUCCGACGAUCAGUUGCAAAUAGUUUUACUCAACUUUUCACACUCAAAAACACUUUAAAUUUUAAAAGCUAAAAACUAUUUACAAAUUAUCCAUUUUAAUUUUAAAAAUGUUUGUUGUUGGUUUCAUUGUUCAACAGAGGAUUGAGCAUCA
B5: 14953337_14953457_101_CDS_ENSMUSG00000021737_ENSMUST00000022256|mouse|control|control (ssRNA)
RNA: GGGAGUUCUACAGUCCGACGAUCCGCGAUGCGCAGGUCGGGGUUCUUGGGCAGUCCCUCUUCUUCUAGGUUUUCUAGCGGCAUGGCUACAGCACAGGAGCCGGCUGACAGAACCAAGCACAGCCCUGGGCCACCAGCGGAAGCCAACAGAGGAUUGAGCAUCA
B6: chr9:14812383:14812384:-_ENSMUSG00000031934_ENSMUST00000164273|mus_mus|mus_mus_mus_hu_True|28_68 (ssRNA)
RNA: GGGAGUUCUACAGUCCGACGAUCAUAGCCCAGGUAGAUACACGCUAACAGUAUAAUGAUGAGUGUCACCAGCCGGCAGCUAAUGUACUUGAUGAUUAAAUUAUUAGAGUUCUUUUUUGUCUUCAAGUACUGCUCCACAAUUGGCAACAGAGGAUUGAGCAUCA
B7: 38631956_38633213_3845_CDS_ENSG00000105738_ENST00000222345|human|control|control (ssRNA)
RNA: GGGAGUUCUACAGUCCGACGAUCCCUCUUGCUGUGCAGUGGCUGGGACUCCCGGAAGGGGACUAUGGGGGUCUGCUUCAGGGGCCGGCUCAGGGACUGGGCAUGGCCGGGAGUGGUUGGAGUGGCCCACUUGGAGGCUGGUAGCAACAGAGGAUUGAGCAUCA
B8: 17148888_17149008_2252_3pUTR_ENSMUSG00000058230_ENSMUST00000075845|mouse|control|control (ssRNA)
RNA: GGGAGUUCUACAGUCCGACGAUCCAAUGCUUUAAAUCUCUGCUCUUCGCCCAGAACAUCCUGGAUGACACCCAUCUUCUCCUUGCUGGGCUUAGCGUCCAGCUCCAGCUCAUAAAACAAUUCUGAGUACUCCAAAAGCAACUCCAACAGAGGAUUGAGCAUCA
B9: chr3:176740097:176740098:-_ENSG00000177565_ENST00000430069|hu_mus|hu_hu_hu_mus_True|1_28 (ssRNA)
RNA: GGGAGUUCUACAGUCCGACGAUCUGUUUUGUAUACCACAAAAGGAGGCACUUUCAGUAUCUGCAAAAGGUGUUUAGUCCUAAAACAUACUCACCUAGAGGAUAACUAAAACAGAAUAUCUGUUACACUCUAAGACCUUAGGAACAACAGAGGAUUGAGCAUCA
B10: 140724004_140724124_2635_3pUTR_ENSMUSG00000019230_ENSMUST00000019374|mouse|control|control (ssRNA)
RNA: GGGAGUUCUACAGUCCGACGAUCUCUGGAAAGUAUUCUACAUGCUAACUUGUUUAACAUGUGCUUUGGAUAUACAGCUAAGUAAGAGUAGCUUUACAAAACUUCUUUCUUCAAGUAUUCCCUUUAACAGUGAGAAAAAACCUCCAACAGAGGAUUGAGCAUCA
B11: chr6:31461392:31461393:+_ENSMUSG00000025609_ENSMUST00000026699|mus_mus|FALSE|FALSE (ssRNA)
RNA: GGGAGUUCUACAGUCCGACGAUCACCUGACGGACACUAGAGGCUUUGGAUAACCAUGUCAUUUCAACAGUAAGACAAACUAUAGAGACAACCCCCACAGUCAAAAACCACAUAUAAAAAUUAGAAUUUGCUUAAUACAGAAAACAACAGAGGAUUGAGCAUCA
B12: chr8:108204030:108204031:+_ENSMUSG00000005698_ENSMUST00000005841|mus_mus|motif|central (ssRNA)
RNA: GGGAGUUCUACAGUCCGACGAUCGGCCACAGGCUGAGGUGGAGGCGGAGGCUGGGGCUGAGGCUCUGGCUCAGGUUCAAUUUCGGCAGCAGGCUCCUCCUCCUCCUCAUUGUCAUCGAGAUCCGGCUCAGCAUUUUCUUCACUCAACAGAGGAUUGAGCAUCA
B13: chr4:95690885:95690886:+_ENSMUSG00000028572_ENSMUST00000156910|mus_mus|mus_mus_mus_hu_False|58_78 (ssRNA)
RNA: GGGAGUUCUACAGUCCGACGAUCUUUAGAAAAUGUUAAAUACCAUGCUAAAAUAUUGUAAUUUUAAUAUUUUAUUUUACUAAAAGACACAGGCAAGCAGACACUACAAGAAUAUAUGAAAAUGAAACUCAACAAUAUAACUGUCAACAGAGGAUUGAGCAUCA
B14: 70217052_70217172_5078_3pUTR_ENSMUSG00000030465_ENSMUST00000120071|mouse|control|control (ssRNA)
RNA: GGGAGUUCUACAGUCCGACGAUCCCUGGGUGAAUGAAGGUAAGAAAGAGGUGCUGGAGCCUGUAAAACUGUCUGGUCUGUUUCUGUCUGAGUAACACAGAUGCUCUGAAACAAGAGCUGAUAUGCCUCAGACCCCAAGAUGCACAACAGAGGAUUGAGCAUCA
B15: 234355436_234356940_1485_3pUTR_ENSG00000077044_ENST00000264057|human|control|control (ssRNA)
RNA: GGGAGUUCUACAGUCCGACGAUCCACCGUCUCACAGAGCACUUUGGCCGAGGAGAUGACCACCGAGUGCUGGUCCGAGGUGAGGAUUUUAGAAAGGUGGGCUGCAACCGAGUCUUCAUAGAAGAGAAUCUGCUGUACCUCGGACAACAGAGGAUUGAGCAUCA
B16: chr1:130485734:130485735:-_ENSMUSG00000045382_ENSMUST00000052172|mus_mus|mus_mus_mus_hu_False|58_68 (ssRNA)
RNA: GGGAGUUCUACAGUCCGACGAUCGAUGAAGGAGUCGAUGCUGAUCCCAAUGUAGUAAGGCAGCCAACAGGCAAAGAAAGCUAGGAUGAGGAUGACUGUGGUCUUGAGGGCCUUGCGCUUCUGGUGGCCCUUGGAGUGUGACAGCAACAGAGGAUUGAGCAUCA
B17: chr3:148479741:148479742:-_ENSMUSG00000028184_ENSMUST00000106128|mus_mus|FALSE|FALSE (ssRNA)
RNA: GGGAGUUCUACAGUCCGACGAUCACAAUGCAGGCCUACAGAAAAACAAAACAAAACAAAAACAAAAACCGGUAGGGCCCUAUUUACAGACUCAGUUCACCAACUGCCGCAAGGAACAUGGCCGGGAGGGAGGGUCUCUUGUUUCAACAGAGGAUUGAGCAUCA
B18: chr16:3748964:3748965:+_ENSMUSG00000022529_ENSMUST00000023176|mus_hu|motif|central (ssRNA)
RNA: GGGAGUUCUACAGUCCGACGAUCUUCAGUGCAGUCCACACCCAUACACAGUCUUUCAGCUGCAUGUAUUCUCUGGUGCCGGAUUAGGUUUGAGUUGUUAGAGAAAUUUUUGCCACACAAGGGACAUAAAUGGAGUUUCUUUGGCAACAGAGGAUUGAGCAUCA
B19: 126174126_126174508_2552_3pUTR_ENSMUSG00000042500_ENSMUST00000084289|mouse|control|control (ssRNA)
RNA: GGGAGUUCUACAGUCCGACGAUCGAGUUCAUCUGCAGUGAAGCAGUUGUCAUCCCACAAGACCUGGUAAUGUGAAGGACGGCUGGUUCCCUGAAUUCCUGCAUGACUACAGAGGUAAAAGUCAAACUCAGACGGGUGUGUGACCAACAGAGGAUUGAGCAUCA
B20: 85483556_85483676_4876_3pUTR_ENSMUSG00000042523_ENSMUST00000123491|mouse|control|control (ssRNA)
RNA: GGGAGUUCUACAGUCCGACGAUCUUAAAAUUGUCAGAUCAUAAUUGGUUGUCUGGGUCCUCUAAUCUGCCCAAUAUGGGAAAUCAAUGAGAAUCUGAUUAGGACUUCUCCUGUGUUCUAUCAGGCUAAAAGUCUAUAGUUUUUCAACAGAGGAUUGAGCAUCA
B21: chr2:32654292:32654293:+_ENSG00000115760_ENST00000421745|hu_hu|motif|central (ssRNA)
RNA: GGGAGUUCUACAGUCCGACGAUCUAAAGGUUUGGAACCUUCUGAAGAUGGUUCUAUUCCUUUAGAAAGAGAUCCAUCCACGGGUAUAUCAGCUUCAUCAAUAUCAUCACAGGUUCCUCCAAUUUGGAGAAAAUGAAGCUCACCCAACAGAGGAUUGAGCAUCA
B22: 79727214_79728839_1188_CDS_ENSG00000146247_ENST00000275034|human|control|control (ssRNA)
RNA: GGGAGUUCUACAGUCCGACGAUCUUCUGAUAUUUUCUCUGGCUGACCUGAUCCAAAAAAAUAAACCCGAAUAAUAUGAUCUGUGCUUCCCGUCGCCAGAAACAUUCCACCAGCACUAAAAGAAGAACAGAUCAUUUGAACUCCCAACAGAGGAUUGAGCAUCA

These binders were tested against T1, UNK ZnF1-3 (human, UniProt Q9C0B0 31-174) (assay: nsRBNS (natural sequence RNA bind-n-seq); RBNS binding buffer (assumed for nsRBNS): 25 mM Tris pH 7.5, 150 mM KCl, 3 mM MgCl2, 0.01% Triton X-100, 500 ug/ml BSA, 20 U/ml SUPERase-In, 4 C; UNK is unkempt and MSI1 is Musashi-1; names of the RNAs are library labels; protein concentration not given here; high values mean tight binding).
T1 sequence: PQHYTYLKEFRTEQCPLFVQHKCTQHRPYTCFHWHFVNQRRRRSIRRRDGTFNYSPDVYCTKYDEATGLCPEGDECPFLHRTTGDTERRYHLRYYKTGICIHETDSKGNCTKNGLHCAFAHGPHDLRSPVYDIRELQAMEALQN
B1 gave a binding signal of 0.801 enrichment R.
Binder B2 has a binding signal of 0.682 enrichment R.
With B3 the binding signal was 1.1 enrichment R.
For B4, the binding signal was 1.08 enrichment R.
For B5, the binding signal was 0.789 enrichment R.
For B6, the binding signal was 1.39 enrichment R.
In the case of B7, the binding signal is reported as 1.68 enrichment R.
B8 was tested, and the binding signal was 1.18 enrichment R.
For B9, the binding signal was 0.723 enrichment R.
In the case of B10, the binding signal is reported as 0.477 enrichment R.
For B11, the binding signal was 2.92 enrichment R.
Binder B12 has a binding signal of 0.472 enrichment R.
B13 gave a binding signal of 1.57 enrichment R.
In the case of B14, the binding signal is reported as 0.625 enrichment R.
In the case of B15, the binding signal is reported as 1.43 enrichment R.
Work on B16 yielded a binding signal of 1.45 enrichment R.
B17 gave a binding signal of 2.67 enrichment R.
B18 showed a binding signal of 0.81 enrichment R.
For B19, the binding signal was 1.13 enrichment R.
Work on B20 yielded a binding signal of 0.751 enrichment R.
Binder B21 has a binding signal of 0.922 enrichment R.
B22 showed a binding signal of 1.21 enrichment R.
